Consider 9 compounds from a compilation of properties of binary mixtures (doi:10.1007/s10953-012-9937-x).

Some of these densities may be calculated back from excess volumes.

Usually mass density stands for mass per unit of volume.

The data set can be described thus: xn = mol fraction of the nth substance listed. The following applies: 298.15 K, 101 kPa.

Take `CCCCCCCCn1cc[n+](C)c1.F[B-](F)(F)F` + CCC(C)=O: the mass density (x2 = 0) was 1105 kg/m3; the mass density (x2 = 0.209) was found to be 1081.1 kg/m3; the mass density (x2 = 0.2713) turned out to be 1073.2 kg/m3; the mass density (x2 = 0.3991) amounted to 1052.8 kg/m3; the mass density (x2 = 0.5032) is listed as 1032.6 kg/m3; the mass density (x2 = 0.551) is recorded as 1021.5 kg/m3. Also, the mass density is, setting by setting: (x2 = 0.6006) 1009.1 kg/m3; (x2 = 0.6442) 996.6 kg/m3; (x2 = 0.9518) 844.5 kg/m3.

Take `CCC(C)=O` + CCCCCCCCn1cc[n+](C)c1.F[B-](F)(F)F: the mass density (x1 = 1) was found to be 800 kg/m3.

Regarding `CCCOC(C)=O` + CCCCCCCCn1cc[n+](C)c1.F[B-](F)(F)F, the mass density (x1 = 1) is reported as 881.2 kg/m3.

Take `CCOC(C)=O` + CCCCCCCCn1cc[n+](C)c1.F[B-](F)(F)F: for the setting “x1 = 1”, the mass density was found to be 894.5 kg/m3.

Turning to `COC(C)=O` + CCCCCCCCn1cc[n+](C)c1.F[B-](F)(F)F, under “x1 = 1”, the mass density worked out at 926.9 kg/m3.

Compound `CCCCCCCCn1cc[n+](C)c1.F[B-](F)(F)F` + CCCCOC(C)=O gave a mass density (x2 = 0) of 1105 kg/m3; a mass density (x2 = 0.1989) of 1082 kg/m3; a mass density (x2 = 0.3002) of 1067.5 kg/m3; a mass density (x2 = 0.3991) of 1051.8 kg/m3; a mass density (x2 = 0.502) of 1032.8 kg/m3; a mass density (x2 = 0.5548) of 1021.8 kg/m3. The compound also gave a mass density (x2 = 0.6024) of 1010.9 kg/m3; a mass density (x2 = 0.654) of 998.5 kg/m3; a mass density (x2 = 0.7075) of 984.2 kg/m3; a mass density (x2 = 0.8007) of 955.7 kg/m3; a mass density (x2 = 0.95) of 899.2 kg/m3.

For the compound `CCCCCCCCn1cc[n+](C)c1.F[B-](F)(F)F` + CCCOC(C)=O, the mass density reads like this: (x2 = 0) 1105 kg/m3; (x2 = 0.1006) 1095.6 kg/m3; (x2 = 0.197) 1085.5 kg/m3; (x2 = 0.2972) 1073.5 kg/m3; (x2 = 0.4992) 1042.6 kg/m3; (x2 = 0.6013) 1022.3 kg/m3. The mass density (x2 = 0.6504) came to 1011 kg/m3; the mass density (x2 = 0.7065) worked out at 996.6 kg/m3; the mass density (x2 = 0.7992) turned out to be 968.4 kg/m3; the mass density (x2 = 0.9043) is 928.2 kg/m3; the mass density (x2 = 0.9529) is listed as 905.9 kg/m3.

Turning to `CCCCCCCCn1cc[n+](C)c1.F[B-](F)(F)F` + CCOC(C)=O, the mass density is, setting by setting: (x2 = 0) 1105 kg/m3; (x2 = 0.1092) 1096.9 kg/m3; (x2 = 0.2953) 1081 kg/m3; (x2 = 0.4999) 1054.7 kg/m3; (x2 = 0.5507) 1046.5 kg/m3; (x2 = 0.7012) 1015.5 kg/m3. The mass density (x2 = 0.9005) came to 948.6 kg/m3.

`CCCCCCCCn1cc[n+](C)c1.F[B-](F)(F)F` + COC(C)=O: the mass density (x2 = 0) was found to be 1105 kg/m3; the mass density (x2 = 0.1173) amounted to 1099.8 kg/m3; the mass density (x2 = 0.2964) is 1088.9 kg/m3; the mass density (x2 = 0.4063) came out at 1080.1 kg/m3; the mass density (x2 = 0.4511) turned out to be 1076.1 kg/m3; the mass density (x2 = 0.4964) was 1071.4 kg/m3. For the same compound, the mass density by setting is: (x2 = 0.6056) 1057.6 kg/m3; (x2 = 0.6519) 1050.4 kg/m3; (x2 = 0.7027) 1041.2 kg/m3; (x2 = 0.8989) 983.9 kg/m3.
